Assay results: article PMC4336329 (PLoS ONE, 2015)
Among all 310,000 compounds or so, about 2,200 (0.71%) showed an effect of 50% or more. The effect is printed as a negative number. This is one part of the list.

Molecular target: human ether-à-go-go-related gene (hERG) potassium channel (human, UniProt Q12809)
Assay: primary screen, population patch clamp on CHO cells stably expressing hERG

human ether-à-go-go-related gene (hERG) potassium channel, sequence (Q12809 whole entry, looked up): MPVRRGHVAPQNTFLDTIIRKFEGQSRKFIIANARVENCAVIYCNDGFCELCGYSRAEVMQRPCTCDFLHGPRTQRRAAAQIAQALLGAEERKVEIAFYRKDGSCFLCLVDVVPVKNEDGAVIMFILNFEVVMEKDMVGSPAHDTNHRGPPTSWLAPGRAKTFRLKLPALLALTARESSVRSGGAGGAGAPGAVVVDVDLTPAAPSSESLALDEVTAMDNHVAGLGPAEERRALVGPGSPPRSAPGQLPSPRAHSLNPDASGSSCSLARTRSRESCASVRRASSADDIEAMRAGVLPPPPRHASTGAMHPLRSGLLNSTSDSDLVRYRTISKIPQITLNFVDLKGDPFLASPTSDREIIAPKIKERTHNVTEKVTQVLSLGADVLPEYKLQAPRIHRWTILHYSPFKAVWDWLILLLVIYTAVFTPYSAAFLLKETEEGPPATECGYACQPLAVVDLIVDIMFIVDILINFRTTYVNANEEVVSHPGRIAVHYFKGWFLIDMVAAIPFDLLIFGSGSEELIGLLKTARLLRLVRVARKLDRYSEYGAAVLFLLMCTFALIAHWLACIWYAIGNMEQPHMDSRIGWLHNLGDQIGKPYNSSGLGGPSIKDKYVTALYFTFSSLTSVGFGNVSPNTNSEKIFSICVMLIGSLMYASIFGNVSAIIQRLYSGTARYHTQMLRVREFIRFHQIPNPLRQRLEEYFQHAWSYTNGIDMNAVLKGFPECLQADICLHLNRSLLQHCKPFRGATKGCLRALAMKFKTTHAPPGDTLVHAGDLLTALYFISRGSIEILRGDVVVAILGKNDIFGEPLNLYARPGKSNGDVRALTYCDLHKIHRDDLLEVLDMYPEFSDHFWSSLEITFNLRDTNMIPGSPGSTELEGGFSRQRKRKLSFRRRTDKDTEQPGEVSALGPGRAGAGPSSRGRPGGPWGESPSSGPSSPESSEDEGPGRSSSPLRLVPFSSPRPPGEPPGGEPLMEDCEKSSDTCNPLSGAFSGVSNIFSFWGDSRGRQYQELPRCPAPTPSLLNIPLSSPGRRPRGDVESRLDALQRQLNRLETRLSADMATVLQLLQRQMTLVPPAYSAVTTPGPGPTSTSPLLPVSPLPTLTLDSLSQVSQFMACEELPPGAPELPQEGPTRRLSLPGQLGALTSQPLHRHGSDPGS

Row | SMILES | hERG current change (%, negative = inhibition) at 1uM [%]
1 | O=C(Nc1ccccc1)NN(C(=O)CCl)c1ccccc1 | 20.6
2 | CCC(C)OC(=O)c1cc(C)nc2c(Br)cc(Br)cc12 (stereo not drawn) | 8.48
3 | CCNc1nc(C#N)nc2c1ncn2-c1cc(F)cc(F)c1 | 14.8
4 | Cc1n[nH]c(C)c1S(=O)(=O)Nc1ccc2c(c1)OCCO2 | 8.55
5 | CCN(CC)CCNC(=O)c1ccc(Sc2ccc(C)cc2)c(NC(C)=O)c1 | -4.4
6 | COc1ccc(C(=O)Nc2ccc(Cl)cc2C(=O)NCc2ccco2)cc1 | -3.96
7 | O=C(NN1C(=O)c2ccccc2C1=O)c1ccc2c(c1)C(=O)N(CC1CCCO1)C2=O (stereo not drawn) | 12.3
8 | Cc1cc(C)c2c(CC(=O)NN(C)C)coc2c1 | 3.51
9 | COc1ccc(-n2cnc3cc(C(=O)NCC4CCCO4)ccc32)cc1 (stereo not drawn) | -6
10 | CCOC(=O)COc1cc(O)c2c(=O)cc(-c3ccccc3)oc2c1 | 4.41
11 | COC(=O)[C@]1(Cc2ccccc2)N[C@H](c2ccc(-c3cccc(Cl)c3)cc2)[C@@H]2C(=O)N(C)C(=O)[C@@H]21.O=C(O)C(F)(F)F | 4.63
12 | O=C(CCNC(=O)c1ccco1)Nc1ccc(OC(F)F)cc1 | -1.99
13 | O=C(COC(=O)c1ccccc1NCCO)NCC1CCCCC1 | 9.32
14 | O=C(NCC1CCN(S(=O)(=O)c2ccccc2)CC1)Nc1ccc(F)cc1 | 5.34
15 | Cc1cc(C)cc(OCC(O)CN2CCC(CN3C(=O)c4cccc5cccc(c45)C3=O)CC2)c1.Cl (stereo not drawn) | -41.7
16 | CCc1cc(-c2n[nH]c(=S)n2-c2ccccc2C)cs1 | -9.81
17 | Cc1ccc(S(=O)(=O)N2CCCCC2)cc1NC(=O)COC(=O)Cc1cccc(C(F)(F)F)c1 | 9.01
18 | CCC(=O)Nc1cc(C(=O)O)ccc1S(=O)(=O)c1ccc(C)cc1 | 9.77
19 | CCOc1cc(/C=C/c2nc3ccccc3c(=O)[nH]2)ccc1O | 14.4
20 | CCC(=O)Oc1ccc2c(c1)O/C(=C\c1ccco1)C2=O | 12.2
21 | COc1ccc2[nH]c(=O)c(CN(Cc3cccnc3)C(=S)NCC3CCCO3)cc2c1 (stereo not drawn) | 13
22 | CCOC(=O)C1CCCN(CCc2ccccc2)C1 (stereo not drawn) | 11.2
23 | COC(=O)N1CCN(C(=O)Cc2ccc(Cl)c(Cl)c2)C(CN2CCCC2)C1.O=C(O)/C=C/C(=O)O (stereo not drawn) | -1.42
24 | CN(CC(=O)O)S(=O)(=O)c1ccc2oc3ccccc3c2c1 | 10.5
